“And” between values parts separate entries of the source, which are not always exact repeats. Equal entries are not always repeated. The campaign covered roughly 150,000 compounds. About 6,500 (4.3%) were called active. Inconclusive means that the source gave no clear call. Such entries were picked first, then a sample of the others. The call rests on the fitted dose curve; in most records, active means well fitted inhibition curve with a large enough effect (not every such curve was filed as active); inconclusive means small, poorly fitted or top-dose-only effect, or another doubt; inactive means no such curve, though single readings can be large or run the other way. No potency is given beside an inconclusive call; the fits are too rough.
What follows are compounds tested against 15-hydroxyprostaglandin dehydrogenase [NAD(+)] (Homo sapiens) (UniProt P15428) (assay: qHTS Assay for Inhibitors of HPGD (15-Hydroxyprostaglandin Dehydrogenase)). Conditions: purified HPGD, NADH fluorescence kinetic, PGE2 substrate; activity change, negative = inhibition: active compounds read low.
How it was run: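 20 nM HPGD preincubated 15 min at room temperature with compound in 50 mM Tris-HCl pH 8, 0.01% Tween 20. Started with 1 mM NAD+ and 30 uM prostaglandin E2; NADH fluorescence (360/450 nm) read 5 times over 30-s intervals, last minus first.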
On the % scale 0 is the no-effect control and ±100 the full control effect; potency means the concentration at half of the fitted maximal effect; tags describe the fitted curve by direction and shape.

Chain of UniProt P15428 (P15428 whole entry, looked up): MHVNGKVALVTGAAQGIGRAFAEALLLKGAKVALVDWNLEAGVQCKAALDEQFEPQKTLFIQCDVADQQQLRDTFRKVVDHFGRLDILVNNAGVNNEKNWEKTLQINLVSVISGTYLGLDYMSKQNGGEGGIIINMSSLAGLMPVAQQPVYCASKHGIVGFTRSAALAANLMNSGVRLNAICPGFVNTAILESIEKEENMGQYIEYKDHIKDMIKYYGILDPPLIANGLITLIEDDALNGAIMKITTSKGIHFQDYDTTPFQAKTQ

SMILES	Potency	activity change, negative = inhibition
Oc1cc2ccccc2cc1-c1nnc2n1-c1ccccc1SC2	inconclusive [inhibitor, full curve]	
COc1ncc2nc(-c3cccs3)c(=O)n(-c3ccccc3)c2n1	inconclusive [inhibitor, partial curve]	
CC(=O)N1CC=CC1(CC(C)C)C(=O)NCc1ccccn1 (stereo unspecified)		inactive: 0.752%
COc1ccc(Br)cc1C(=O)Nc1ccc(NC(=O)c2ccco2)cc1	inconclusive [inhibitor, partial curve]	
COc1ccc(OCC(O)CNc2ccc(Br)cc2)cc1 (stereo unspecified)	inconclusive [inhibitor, partial curve]	
CC(=O)Nc1c(O)nc(SCC(=O)Nc2sc3c(c2C#N)CCCCCC3)[nH]c1=O	inconclusive [inhibitor, partial curve]	
COc1cccc(-n2cnc3sc(C)c(C)c3c2=O)c1		inactive: -5.78%
Cc1ccc(S(=O)(=O)n2nc(C)cc2C)cc1		inactive: -5.2%
Cc1ccc2cc3cc(C(=O)NCCN4CCOCC4)oc3nc2c1	inconclusive [inhibitor, partial curve]	
NC(=O)C1CCN(C(=O)OCc2ccccc2)CC1		inactive: -7.04%
CN1CC=C2C(C#N)=C(N)C(C#N)(C#N)C(Cc3ccccc3)C2C1 (stereo unspecified)	inconclusive [inhibitor, single point]	
CC(C)(C)c1nn2cnnc2n(/N=C/c2ccccc2)c1=O	inconclusive [inhibitor, single point]	
COc1ccccc1Nc1nc(-c2sc(NC(=O)CC(C)C)nc2C)cs1	inconclusive [inhibitor, partial curve]	
NCCCCCCNS(=O)(=O)c1cccc2c(Cl)cccc12		inactive: -2% and inactive: -6.47% and inactive: -2.16%
CCCn1cnc2cc(NCc3cccc(OC)c3O)ccc21	inconclusive [inhibitor, partial curve]	
Cn1nnnc1SCc1cn2cccnc2n1	inconclusive [inhibitor, partial curve]	
O=C(O)c1cc(N/N=C/c2ccc(N3CCOCC3)s2)ccc1Cl	inconclusive [inhibitor, partial curve, poor fit]	
Cn1cc(C(=O)c2ccccc2)cc1-c1nc2ccccc2n1C	inconclusive [inhibitor, partial curve]	
CC1(C)Cc2nc3sc4c(N(CCO)CCO)ncnc4c3cc2CO1	inconclusive [inhibitor, partial curve]	
COc1ccccc1/C=C/C(=O)NC(=S)NC(C)C	inconclusive [inhibitor, partial curve]	
COc1ccc(C)cc1S(=O)(=O)N(CC(=O)NCc1ccc(Cl)cc1)Cc1ccccc1		inactive: -6.29%
CCN(CC)C(=O)C(Sc1ccccc1)c1ccccc1 (stereo unspecified)		inactive: 4.33%
NC(=O)Cc1ccc2sc(-c3ccccc3)nc2c1	inconclusive [inhibitor, single point]	
Brc1ccccc1-c1nnc(COc2ncnc3c2cnn3-c2ccccc2)o1	inconclusive [inhibitor, partial curve]	

SMILES	Potency	activity change, negative = inhibition
Cc1sc2ncn(-n3c(C)ccc3C)c(=O)c2c1C		inactive: -7.82%
O=C(c1cccs1)N(Cc1ccco1)Cc1cc2ccccc2[nH]c1=O		inactive: -13.9%
Cc1ccc(C2C(C#N)=C(N)SC(N)=C2C#N)o1	inconclusive [inhibitor, partial curve]	
Cc1ccc(C2CC(c3cccs3)=NN2C(=O)c2ccc(Br)o2)cc1 (stereo unspecified)	inconclusive [inhibitor, partial curve]	
CCOc1ccc2c(c1)nc(SCC(=O)c1ccc(Br)s1)n2C	inconclusive [inhibitor, single point]	
COC(=O)N/N=C/c1ccc(-c2cccc(Cl)c2)o1	inconclusive [inhibitor, partial curve]	
CC1CCCC(NC(=O)Cc2ccc(Br)cc2)C1C (stereo unspecified)	active: 15.8 µM	
c1ccc2c(-c3nc4ncccc4o3)cccc2c1	inconclusive [inhibitor, partial curve]	
COc1ccc(/C=C/C(=O)OCC(=O)NCc2cccs2)cc1OC	inconclusive [inhibitor, single point]	
CC(=O)Nc1ccc(NC(=O)c2ccc(COc3ccc4c(C)cc(=O)oc4c3)cc2)cc1	inconclusive [inhibitor, partial curve]	
N#Cc1ccc(COc2ccc(CCO)cc2-n2nc3ccccc3n2)cc1	inconclusive [inhibitor, partial curve]	
COC(=O)C1=C(CSc2nc3c(cc2C#N)CN(C)CC3)OC(N)=C(C#N)C1c1ccccc1F (stereo unspecified)	inconclusive [inhibitor, single point]	
O=c1/c(=C/c2ccco2)sc2n1CN(c1cccc(Br)c1)CN=2	active: 25.1 µM	
COc1cc2c(cc1OC)C(C)N(C(=O)c1cc3c(s1)-c1c(C)cccc1OC3)CC2 (stereo unspecified)	inconclusive [inhibitor, partial curve]	
CCOc1cc(C2CC(=O)N3CN(C4CCCCC4)CSC3=C2C#N)ccc1O (stereo unspecified)	active: 25.1 µM	
CN1CC[C@H](CN2c3ccccc3Sc3ccccc32)C1		inactive: -5.58%
CCN1CC=C2C(C#N)=C(N)C(C#N)(C#N)C(CCc3ccccc3)C2C1 (stereo unspecified)	inconclusive [inhibitor, partial curve]	
CSc1nnc(NC(=O)c2ccc(C)c(S(=O)(=O)N3CCOCC3)c2)s1	active: 20 µM	
Cc1c(C2CCN(CCc3ccccc3)CC2)noc1-c1ccc(Cl)cc1		inactive: -3.64%
Cc1onc(-c2ccccc2)c1C(=O)NC(=S)NNC(=O)c1ccccc1O		inactive: -7.48%
Cc1nc(NC(=O)c2ccccc2)sc1-c1csc(Nc2ccc(F)cc2)n1	inconclusive [inhibitor, partial curve]	
O=C(O)Cn1c(O)c(C=Nc2ccccc2)sc1=S	inconclusive [inhibitor, partial curve]	
CC(C)NC(=O)c1onc(CSc2cccc3ccccc23)c1C(=O)O	active: 22.4 µM	
CN(C)c1ccc(-c2cncnc2NCc2cccs2)cc1	inconclusive [inhibitor, partial curve]	

SMILES	Potency	activity change, negative = inhibition
O=C(c1cccc(F)c1)N1CCC2(CCCN(Cc3nccs3)C2)CC1		inactive: -5.15%
CCOC(=O)CSc1ccc(-c2nc3cc(C)c(C)cc3[nH]2)cn1	inconclusive [inhibitor, partial curve]	
Cc1ccc(CNC(=O)COC(=O)CCCOc2ccc(Cl)cc2Cl)cc1	active: 15.8 µM	
Cc1cc(N2CCC(N(C)C3CCCC3)CC2)nc2cc(O)ccc12	inconclusive [inhibitor, partial curve]	
CC(C)C[C@@H](CC(=O)N[C@@H](CCC(=O)O)CC(=O)O)NC(=O)[C@@H]1CNCC[C@H]1NC(=O)C[C@@H](NC(=O)C[C@H](CO)NC(=O)[C@@H]1CCCC[C@H]1N)C(C)C		inactive: -2.53%
CCOC(=O)c1[nH]c2ccc(OC)cc2c1NC(=O)N1CCOCC1	inconclusive [inhibitor, partial curve]	
Cc1ccccc1Nc1nc(N)nc(COC(=O)c2cccc(S(=O)(=O)NCc3ccccc3)c2)n1	active: 28.2 µM	
CCCn1c(=N)c(C(=O)NCC2CCCO2)cc2c(=O)n3cccc(C)c3nc21 (stereo unspecified)	inconclusive [inhibitor, partial curve]	
Cc1cc(NCc2ccccc2)nc(-c2ccccc2O)n1	inconclusive [inhibitor, partial curve]	
CCOC(=O)c1ccc(NC(=O)c2ccccc2N(C)S(=O)(=O)c2ccccc2)cc1		inactive: -5.64%
Cc1cc(C)c(C(=O)c2ccc(C(=O)N(C(C)C)C(C)C)cc2)c(C)c1	inconclusive [inhibitor, partial curve, poor fit]	
NC(=S)Nc1cccc2cc3ccccc3cc12		inactive: -17.2%
Cc1cnc(C(=O)Nc2ccc(C(=O)N3CCCCC3)cc2)cn1	active: 0.282 µM	
O=C(c1ccccc1)N1CCCCC(Sc2nnnn2-c2ccccc2)C1=O (stereo unspecified)		inactive: -10.8%
Cc1ccc2c(CC(=O)OC(C)C(=O)NCc3ccc4c(c3)OCO4)coc2c1 (stereo unspecified)	active: 14.1 µM	
COc1ccc(NC(=S)N2CCc3ccccc3C2)cc1	inconclusive [inhibitor, single point]	
O=C(O)[C@@H](Cc1c[nH]c2ccccc12)C(=O)NO		inactive: -12.2%
COc1cc2c(cc1OC)-c1cc3cc(OC)c(OC)cc3c(=O)n1CC2	inconclusive [inhibitor, partial curve]	
COC(=O)c1cc(C(=O)CSc2nc(C)cc(C)n2)ccc1O	active: 17.8 µM	
CCC(C)(C)n1nnnc1CN1CCC(c2nc3ccc(C)cc3[nH]2)CC1		inactive: -1.04%
CCN1CCCC1Cn1cnc2c([nH]c3ccc(C)cc32)c1=O (stereo unspecified)	inconclusive [inhibitor, partial curve]	
CCOC(=O)c1ccc(NS(=O)(=O)N2CCCCCC2)cc1	inconclusive [inhibitor, single point]	
COc1ccc2[nH]c(C(=O)O)c(CCNC(C)=O)c2c1	inconclusive [inhibitor, partial curve]	
